# Hit rate of the full screen: of about 110,000 compounds, about 230 (0.21%) showed an effect of 50% or more. The list shows a part of the results.
# Target: DPAP1 (Plasmodium falciparum, UniProt Q8IIJ9)
# Assay: primary screen, percent inhibition; read by cleavage of a fluorogenic dipeptide substrate; higher = more effect of the substance
# Parameters: species or system P. falciparum D10 trophozoite lysates; single well
# 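Further: 30 min substrate incubation versus DMSO and 10 µM JCP410 controls.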
# Chain of DPAP1 (Q8IIJ9 whole entry, looked up): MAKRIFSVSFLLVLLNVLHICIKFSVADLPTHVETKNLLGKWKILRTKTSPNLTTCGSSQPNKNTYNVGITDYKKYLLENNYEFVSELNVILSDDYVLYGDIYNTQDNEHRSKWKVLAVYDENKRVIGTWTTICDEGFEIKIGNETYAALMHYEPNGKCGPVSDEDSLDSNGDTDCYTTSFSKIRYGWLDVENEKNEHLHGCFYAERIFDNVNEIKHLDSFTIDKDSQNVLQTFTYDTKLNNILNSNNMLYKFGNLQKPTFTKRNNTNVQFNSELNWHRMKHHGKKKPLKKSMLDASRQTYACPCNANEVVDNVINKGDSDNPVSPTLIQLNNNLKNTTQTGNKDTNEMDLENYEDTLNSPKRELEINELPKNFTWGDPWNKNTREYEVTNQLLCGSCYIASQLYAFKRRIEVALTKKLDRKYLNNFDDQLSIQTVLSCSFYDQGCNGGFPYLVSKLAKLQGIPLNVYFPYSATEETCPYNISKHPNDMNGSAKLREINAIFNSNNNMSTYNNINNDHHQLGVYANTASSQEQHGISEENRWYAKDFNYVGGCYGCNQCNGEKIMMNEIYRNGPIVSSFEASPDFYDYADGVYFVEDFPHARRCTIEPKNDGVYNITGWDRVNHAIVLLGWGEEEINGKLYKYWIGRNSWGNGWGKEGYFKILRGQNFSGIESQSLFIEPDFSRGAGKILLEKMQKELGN
row,SMILES,% Inhibition @ 10 uM
1,Cc1nn(-c2ccccc2)c(-n2cccc2)c1C(=O)N1CCN(C(=O)c2ccco2)CC1,-1.58%
2,O=C(COc1ccc(Cl)cc1Cl)Nc1ccccc1[N+](=O)[O-],-5.51%
3,CC(C)NC(=O)c1cnn2c(C(F)F)cc(-c3ccccc3)nc12,-0.958%
4,COc1ccccc1C(=O)N(Cc1cccc(F)c1)C1CCS(=O)(=O)C1 (stereo not drawn),-3.34%
5,Cc1ccc(S(=O)(=O)N2CCN(CC(O)COc3ccc4ccccc4c3)CC2)c(C)c1 (stereo not drawn),-6.59%
6,Cc1ccccc1Cn1cnc2ccc(Cl)cc2c1=O,28.3%
7,CCc1cccc(CC)c1NC(=O)c1ccc(CN2CCOCC2)cc1,-5.54%
8,Cn1c(C(=O)NCCc2ccccc2)cc2sccc21,-1.37%
9,O=C(Nc1nc(C2C3CC4CC(C3)CC2C4)cs1)c1c(O)nc2ccccc2c1O (stereo not drawn),-5.49%
10,O=c1c2c3c(sc2[nH]c(=S)n1Cc1ccccc1)CCC3,21%
11,Nc1nc(NCCc2ccccc2)nc(-c2cc(Cl)ccc2O)n1,-1.17%
12,Cc1onc(-c2ccccc2Cl)c1C(=O)NC(C)c1ccccc1 (stereo not drawn),-0.769%
13,Cc1cccc(OCC(=O)Nc2ccc3c(c2)OCO3)c1,-1.52%
14,CSc1ccc(CCNCc2c(C(=O)O)c(C)n(Cc3ccc(F)cc3Cl)c2C)cc1,2.99%
15,CC(=O)c1[nH]c(C)c(C(=O)NCc2ccccc2Cl)c1C,5.27%
16,C=CCn1c(SCc2ccccc2Cl)nc2c1c(=O)[nH]c(=O)n2C,-0.273%
17,O=C(NCc1ccco1)c1ccc(CSCc2ccccc2Cl)o1,3.79%
18,O=C(c1cccnc1Cl)N1CCN(C(c2ccccc2)c2ccccc2)CC1,-4.33%
19,O=C(NCCCN1CCOCC1)Nc1cccc2ccccc12,-2.18%
20,CC(C)n1c(SCCCc2ccccc2)nc2c1c(=O)[nH]c(=O)n2C,2.38%
21,c1cc(-c2nnco2)ccn1,0.238%
22,Cn1c2ccccc2c2nnc(NCCc3c[nH]c4ccccc34)nc21,-2.48%

row,SMILES,% Inhibition @ 10 uM
1,CN(Cc1ccco1)C(=O)c1cc2c(s1)-c1ccc(Cl)cc1S(=O)(=O)C2,-2.45%
2,O=C(CCSCCC(=O)N1CCc2ccccc21)N1CCc2ccccc21,3.67%
3,Cc1[nH]c(-c2ccc(F)cc2)cc1C(=O)N1CCN(C2CCCCC2)CC1,8.37%
4,Cc1nc(NC(=O)CC23CC4CC(CC(C4)C2)C3)sc1-c1ccccc1,0.776%
5,CCN(CC)CCCN1C(=O)C(O)=C(C(C)=O)C1c1ccc(OC)cc1OC (stereo not drawn),1.52%
6,COc1ccc(-c2nc(CSCC(=O)NCc3ccco3)c(C)o2)cc1,-2.85%
7,CN(C(=O)c1cccs1)c1ccccc1,3.85%
8,Cn1c(=O)c(C(=O)NC2CCCCCC2)c(O)c2ccccc21,2%
9,COc1ccc(-c2noc(CCCOc3ccccc3)n2)cc1OC,1.72%
10,O=C(Cn1c(=O)sc2ccccc21)Nc1cc(Cl)ccc1Cl,-15.4%
11,N#Cc1c(SCC(=O)O)nc2c(c1-c1cccs1)CCCC2,43.2%
12,CCN1CCN(C(=O)CC(c2cccs2)N2Cc3ccccc3C2=O)CC1 (stereo not drawn),-2.37%
13,Cc1cccc(OC(C)C(=O)N(Cc2cccs2)C2CCS(=O)(=O)C2)c1C (stereo not drawn),-13.2%
14,CCCCCn1c(=O)c(C(=O)Nc2ccncc2)c(O)c2ccccc21,-2.88%
15,CCOc1ccc(CCNCc2c(C(=O)O)c(C)n(Cc3ccccc3C)c2C)cc1,-5.49%
16,CCCCCC1CCC(c2ccc(C(=O)Nc3ccc(Cl)c4c3C(=O)c3ccccc3C4=O)cc2)CC1 (stereo not drawn),-7.02%
17,N#CC(c1nc2ccccc2nc1OCCO)S(=O)(=O)c1ccccc1 (stereo not drawn),-1.45%
18,c1ccc(N2CCN(C3CC4CCC3C4)CC2)cc1 (stereo not drawn),-0.414%
19,CCOC(=O)c1[nH]c(C)c(Cc2ccc(OCC)cc2)c1C,2.58%
20,COc1ccc(C2CC(=O)N=C(NC(=O)c3ccccc3F)N2)cc1 (stereo not drawn),1.13%
21,CC(C)CCC(C(=O)NCC#N)c1ccc(-c2ccccc2)cc1 (stereo not drawn),0.744%
22,CCOc1cc(CNCCc2ccccc2F)ccc1OC,-2.22%

row,SMILES,% Inhibition @ 10 uM
1,CC(CCc1ccccc1)NC(=O)c1cn(C)c(=O)c2ccccc12 (stereo not drawn),-6.13%
2,Cc1ccc(-c2noc(-c3nnn(-c4ccc(C(F)(F)F)c(Cl)c4)c3N)n2)cc1,3.98%
3,NC(=O)c1c(NC(=O)c2cccc(F)c2)sc2c1CCCCCC2,10.3%
4,COCCNC(=O)Cn1nc(C(F)(F)F)c(Br)c1C,-6.57%
5,CCOc1ccc(N2C(=O)CC(NCCN3CCOCC3)C2=O)cc1 (stereo not drawn),4.83%
6,Clc1ccccc1CN1CCN(c2ccccc2)CC1,-3.65%
7,CC(=O)c1ccc2c(c1O)CCC(c1ccccc1)O2 (stereo not drawn),-6.62%
8,Cc1ccc(NC2=C(Cl)C(=O)N(c3ccccc3)C2=O)c(C)c1,0.385%
9,CCCNc1nc(Cl)nc(NCc2cccnc2)n1,-7.3%
10,CC(Cc1ccc(F)cc1)N1CCN(c2ccccc2F)CC1 (stereo not drawn),-1.41%
11,Cc1[nH]nc(Nc2ccc(Br)cc2)c1[N+](=O)[O-],4.44%
12,CCOc1ccccc1C(=O)N1CCCCC1C (stereo not drawn),3.21%
13,Cc1cccc(C(=O)Nc2ccc(NC(=O)c3cc4ccccc4o3)cc2)c1,-2.99%
14,COc1ccc(C2OCC3(CO)C(C)C=C(C)C2C3C)cc1 (stereo not drawn),3.61%
15,CC(C)C[C@H](NC(=O)c1cc(-c2ccccc2Cl)cc(-c2ccccc2Cl)c1)C(=O)NCC#N,-5.2%
16,NC(=O)c1c(NC(=O)c2cccnc2Cl)sc2c1CCCC2,5.73%
17,O=C(NCCc1ccc(Cl)cc1)c1cc2ccccn2n1,-0.0115%
18,O=C(c1ccc([N+](=O)[O-])o1)N1CCN(C/C=C/c2ccccc2)CC1,-1.5%
19,COc1ccc(-c2nc(C#N)c(NCC(C)C)o2)cc1,-1.43%
20,Cc1cccc(OCC(=O)Nc2ccc(Br)c(Cl)c2)c1,-0.173%
21,CN1CCN(C(=O)CC(c2ccccc2)c2ccccc2)CC1,-1.99%
22,Cc1ccc(C(=O)N2N=C(C3CCCCC3)CC2(O)C(F)(F)F)o1 (stereo not drawn),0.583%

# — PMC6919601, “Identification of Plasmodium dipeptidyl aminopeptidase allosteric inhibitors by high throughput screening” (PLoS ONE, 2019)
